Results on 77 compounds are retold here after PubChem BioAssay AID504444 (National Center for Advancing Translational Sciences (NCATS), 2011).

The campaign covered roughly 360,000 compounds. About 7,500 (2.1%) were called active. Inconclusive results (about 20%) are left out. The call rests on the fitted dose curve; in most records, active means well fitted inhibition curve with a large enough effect; inconclusive means small, poorly fitted or top-dose-only effect, or effect the other way; inactive means flat fitted curve, though single readings scatter. The entries are a selection whose mix differs from that of the whole data set. Where a structure was tested more than once in an assay, its records may differ in their call.
On the % scale 0 is the no-effect control and ±100 the full control effect; potency means the concentration at half of the fitted maximal effect.

This experiment is described as follows: Nrf2 qHTS screen for inhibitors. Further: nearly all actives have a fitted effect of over 60% in size. The following applies: A549 ARE-Fluc reporter, luciferase luminescence, 18-24 h; series mostly up to 46 µM; activity change, negative = inhibition: at the top concentration. In short, it runs like this: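 Cells were seeded and rested 2 h, then exposed to compounds for 18-24 h. CellTiter-Fluor was read first as a viability measure. BugLite was added 15 min before the final luminescent read of ARE-luciferase activity in A549 cells.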
As to `O=C(C1=C[C@H](c2ccc(Br)cc2)C[C@H](OCCCCO)O1)N1CCN(Cc2ccccc2)CC1`, the “activity change, negative = inhibition” value was inactive: -0.524%. Regarding `COC(=O)/C(=C\c1c[nH]c2ccccc12)NC(C)=O`, the “activity change, negative = inhibition” value is inactive: -1.85%.

As to `CCC(=O)NCc1cc(-c2nn(C)c(=O)c3ccccc23)ccc1OC`, the “activity change, negative = inhibition” value was inactive: -4.14%. The same measure, in the same setting: the same measure for `O=C1Nc2ccccc2C1=Nc1ccc(-c2nnc3n2CCCCC3)cc1`: inactive: 0.382%; for `N#C/C(=C\c1cccc([N+](=O)[O-])c1)c1nnc2n1CCCCC2`: inactive: 1.29%; for `COc1cc(NC(=O)c2ccccc2)ccc1NC(=O)c1cc2ccccc2o1`: inactive: 3.78%. With `C[C@@H]1CCC[C@@]2(O[C@H](CCO)C[C@H](O)[C@H]2O)O1`, the “activity change, negative = inhibition” value is inactive: -18.3%. For the compound `COc1ccccc1N(CC(=O)NCCSCc1ccccc1)S(=O)(=O)c1ccc(C)cc1`, the “activity change, negative = inhibition” value is inactive: -21.7%. Take `Cc1cc(C)cc(OCC(=O)NCCc2nc3ccccc3[nH]2)c1`: the “activity change, negative = inhibition” value was inactive: -6.75%. `CCOC(=O)c1cc2c(=O)n3ccccc3nc2n(CCOC)c1=NC(=O)c1c(-c2c(F)cccc2Cl)noc1C`: the activity change, negative = inhibition was inactive: 0% [at 9.27 µM]. For `OCC1OC(n2cnc3c(NCc4ccccc4O)ncnc32)C(O)C1O` (stereo not drawn), the Potency was active: 18.4 µM.

With `C=CCC[C@@H](Cc1ccc(F)cc1)C(=O)OC[C@H](Cc1c[nH]c2ccccc12)NC(=O)[C@@H](CC=C)CC(=O)NCCO`, the “activity change, negative = inhibition” value is inactive: 9.37%. As for `C=CC[C@@H](CC(=O)N[C@H](CO)Cc1ccccc1)C(=O)NC[C@H](OC(=O)[C@@H](CC=C)Cc1ccc(F)cc1)c1ccccc1`, the “activity change, negative = inhibition” value is inactive: -12.3%. The same measure, in the same setting: the value for `Cc1cc(C)c(NC(=O)Cn2nnc(C(=O)NCc3cccs3)c2N)c(C)c1` was inactive: -4.7% [at 9.27 µM].

Regarding `Cn1c(/C=C/c2ccc(Cl)cc2Cl)c([N+](=O)[O-])c(=O)n(C)c1=O`, the Potency is active: 25.9 µM. Turning to `CC(C)NC(=O)/C(C#N)=C/c1ccc(N(C)C)o1`, the “activity change, negative = inhibition” value is inactive: 4%. Regarding `COC(=O)CCN(c1ccccc1)S(=O)(=O)c1cc(-c2cc(C)no2)ccc1OC`, the “activity change, negative = inhibition” value is inactive: 25.7%. As to `O=C(Nc1cccnc1Cl)c1cc(-c2cccc(Cl)c2)on1`, the “activity change, negative = inhibition” value is inactive: 9.96%. In the case of `CCOc1ccc(NC(=O)Cn2cc(C(=O)c3ccco3)c3ccccc32)cc1`, the “activity change, negative = inhibition” value was inactive: -19.2%. As to `CCO[C@@H]1OC(C(=O)NCc2nc3ccccc3[nH]2)=C[C@H](c2cn(C(C)=O)c3ccccc23)[C@H]1CCCO`, the “activity change, negative = inhibition” value is inactive: -22.6%. Take `O=C(Cn1c(=O)c2cccn2c2ccccc21)NCCc1ccccc1`: the “activity change, negative = inhibition” value is inactive: 7.19%. On to `COc1cccc(-c2nn3c(-c4cc(C)[nH]n4)nnc3s2)c1`, for which the “activity change, negative = inhibition” value is inactive: -16.3%. As to `COc1ccc(NC(=O)CNC(=O)Cn2c(C)cc3ccccc3c2=O)cc1OC`, the activity change, negative = inhibition is inactive: -18.7% [at 9.27 µM]. `COc1ccc(Nc2ncc(C(=O)N3CCN(c4ccc(F)cc4)CC3)c3ccccc23)cc1`: the activity change, negative = inhibition is inactive: -4.53% [at 9.27 µM]. On to `CC(=O)N1CCCC1C(=O)O` (stereo not drawn), for which the “activity change, negative = inhibition” value is inactive: -2.44%. As to `Cc1nc2scc(C)n2c(=O)c1S(=O)(=O)N1CCN(c2cccc(C(F)(F)F)c2)CC1`, the “activity change, negative = inhibition” value is inactive: -14.4%. The same measure, in the same setting: the value for `CS(=O)(=O)N1CCc2cc(C(=O)N3CCN(c4ccccc4)CC3)ccc21` was inactive: 12.7%; that for `COc1ccc(CNCCC(c2ccccc2)c2ccc3c(c2)OCO3)cc1` (stereo not drawn) was inactive: -3.59%; that for `COC(=O)C(C)n1nnc2sc(-c3ccccc3)cc2c1=O` (stereo not drawn) was inactive: 1.29%. Turning to `COc1cc(/C=C2\SC(=S)N(CCC(=O)Nc3ccccc3)C2=O)cc(OC)c1OC`, the “activity change, negative = inhibition” value was inactive: -12.2%. Turning to `O=C(Nc1cccc(S(=O)(=O)Nc2ccccc2Cl)c1)c1ccc(Cl)nc1`, the Potency is active: 5.17 µM.

Turning to `CC(C)(C)OC(=O)N[C@H](/C=C/c1ccccc1)C(=O)OC(C)(C)C`, the “activity change, negative = inhibition” value is inactive: 2.32%.

Turning to `C=CCC[C@H](Cc1ccc(F)cc1)C(=O)OC[C@H](Cc1c[nH]c2ccccc12)NC(=O)[C@H](CC=C)CC(=O)NCCO`, the “activity change, negative = inhibition” value was inactive: -21.1%. Consider `O=C(O)C(CCCCNS(=O)(=O)c1ccc(F)cc1)NS(=O)(=O)c1ccc(F)cc1` (stereo not drawn), for which the “activity change, negative = inhibition” value is inactive: -4.2%. As to `Cc1nc2sccn2c(=O)c1S(=O)(=O)NCc1ccccc1`, the “activity change, negative = inhibition” value is inactive: 14.2%. In the case of `Cc1ccc(C)c(N2CCN(C(=O)c3ccc4c(c3)c(C)c(C)n4C)CC2)c1`, the “activity change, negative = inhibition” value was inactive: -26.4%. With `C/C(N)=C(/C#N)C(=O)CSc1nc(C2CCCCC2)n(-c2ccccc2)n1`, the “activity change, negative = inhibition” value was inactive: -17.8%. Still for that read-out and setting: the same measure for `CCO[C@H]1OC(C(=O)N2CCOCC2)=C[C@@H](c2coc3ccccc3c2=O)[C@@H]1CCCO`: inactive: -8.54%; for `COc1cc(NC(=O)c2cccc(F)c2)ccc1NC(=O)c1cc2ccccc2o1`: inactive: -3.35%. As for `CCn1c(CN2CCOCC2)nc2cc(NC(=O)c3ccc([N+](=O)[O-])cc3)ccc21`, the Potency was active: 9.2 µM.

Regarding `CCOC(=O)C1CCN(C(=O)Cn2nc(C)n3c(cc4cc(C)ccc43)c2=O)CC1`, the “activity change, negative = inhibition” value is inactive: 5.72%. Consider `CCc1ccccc1NC(=O)Cn1nnc(C(=O)NCc2cccs2)c1N`, for which the “activity change, negative = inhibition” value is inactive: -4.73%.

As for `CCN1CCN(c2cc(C)c3cc(NC(=O)c4ccc(OC)c(OC)c4)ccc3n2)CC1`, the Potency is active: 16.4 µM and the activity change, negative = inhibition was inactive: -15.6% [at 9.27 µM]. Turning to `C=CC[C@@H](Cc1ccc(F)cc1)C(=O)OC[C@@H]1CCCN1C(=O)[C@@H](CC=C)CC(=O)N[C@@H](CO)Cc1ccccc1`, the “activity change, negative = inhibition” value was inactive: 4.56%.

With `COC(C[C@@H]1O[C@@H]1[C@H](O)[C@@H](C)OCc1ccccc1)OC`, the “activity change, negative = inhibition” value is inactive: 9.4%.

Turning to `CC(CC(=O)Nc1ccc(Cl)c(S(=O)(=O)N2CCOCC2)c1)c1ccccc1` (stereo not drawn), the Potency was active: 7.31 µM.

As to `Cc1ccc(-c2cc([C@H]3[C@@H]4C=CCC[C@@]4(C)C(=O)N3Cc3ccccc3)ccc2F)cc1`, the “activity change, negative = inhibition” value was inactive: -16.2%. Take `COc1ccccc1NS(=O)(=O)c1ccc(C(=O)N2CCCCCC2)cc1`: the Potency was active: 10.3 µM.

Consider `Cc1csc2c(N3CCN(C(=O)Nc4ccccc4)CC3)ncnc12`, for which the Potency is active: 8.2 µM. Turning to `CC(C)(C)c1ccc2c(c1)OC(C(=O)N/N=C\c1ccccn1)CO2` (stereo not drawn), the Potency was active: 16.4 µM. `CC(/C=N/NC(=O)CSc1ccccn1)=C\c1ccc(C(C)C)cc1`: the “activity change, negative = inhibition” value was inactive: 24.4%. With `CC[n+]1c(/C=C(\C)SC)sc2ccccc21`, the Potency is active: 20.6 µM.

As to `CN(c1ccccc1)S(=O)(=O)c1nnc(NC(=O)C2CCCCC2)s1`, the “activity change, negative = inhibition” value is inactive: -3.09%. On to `Cn1nc(C(=O)NCc2cccc(Cl)c2)c2c1-c1ccccc1S(=O)(=O)C2`, for which the “activity change, negative = inhibition” value was inactive: 0.784%. For the compound `Cc1ccccc1N(C)S(=O)(=O)c1nnc(NC(=O)c2ccccc2F)s1`, the “activity change, negative = inhibition” value was inactive: 10.8%. Regarding `COc1ccc(NC(=O)c2ccc(COc3ccccc3Br)o2)cc1OC`, the Potency was active: 23.1 µM. With `COc1ccc(OC)c(S(=O)(=O)Nc2ccc3[nH]c(=O)[nH]c3c2)c1`, the “activity change, negative = inhibition” value is inactive: 9.82%. As to `Cc1ccc2c(c1)N(CC(=O)NCCCN1CCCCC1)C(=O)c1cccnc1O2`, the “activity change, negative = inhibition” value is inactive: 28.4%. Still for that read-out and setting: the value for `COc1ccc(/C=C2/SC(=S)N(CCCC(=O)Nc3ccc(O)cc3)C2=O)cc1` was inactive: 16.9%; that for `CCNc1nc(NC(C)CC)nc(Oc2ccc(OCC)nn2)n1` (stereo not drawn) was inactive: -5.9%.

As for `CCC(C)NC(=O)CCC(=O)NNc1nc2ccccc2c2nc(C)nn12` (stereo not drawn), the “activity change, negative = inhibition” value is inactive: -0.323%. For the compound `CC(C)(C)[C@H]1COC(=O)[C@H](NC(=O)OCC2c3ccccc3-c3ccccc32)C/C=C\C[C@@H](CC(=O)N[C@H](CO)Cc2ccccc2)C(=O)N1`, the “activity change, negative = inhibition” value was inactive: 1.64%.

For the compound `Cc1ccccc1-c1nc(CS(=O)(=O)CC(=O)NCCc2ccccc2)c(C)o1`, the “activity change, negative = inhibition” value was inactive: -17%. For the compound `CCC/C=C1/CCCOC(C(=O)NCCNCCO)(C(F)(F)F)C1` (stereo not drawn), the “activity change, negative = inhibition” value was inactive: 11.1%. Regarding `CN(/C=C/C(=C/C=[N+](C)c1ccccc1)OCCCS(=O)(=O)[O-])c1ccccc1`, the “activity change, negative = inhibition” value is inactive: 7.22%. Still for that read-out and setting: the same measure for `COC(=O)CNC(=O)C1CCN(S(=O)(=O)c2cccc3nsnc23)CC1`: inactive: -20.7%. With `C[C@]12c3[nH]c4cc(-c5ccco5)ccc4c3CCN1C(=O)[C@@H](CC(=O)NCC13CC4CC(CC(C4)C1)C3)C[C@@H]2C(=O)N1CCOCC1`, the Potency was active: 23.1 µM. With `O=S(=O)(c1ccc2nc(N3CCN(c4ccccc4)CC3)ccc2c1)N1CCCCC1`, the “activity change, negative = inhibition” value is inactive: 22.1%. On to `Cc1ccc(NS(=O)(=O)c2cccc(C(=O)Nc3cccnc3)c2)c(C)c1`, for which the Potency is active: 8.2 µM. Take `CN(CC(=O)Nc1ccc(F)c(Cl)c1)S(=O)(=O)c1cccc2nsnc12`: the Potency is active: 25.9 µM. As to `O=C(Cn1cnc(S(=O)(=O)N2CCCC2)c1)Nc1ccc(OC(F)(F)F)cc1`, the “activity change, negative = inhibition” value was inactive: 15.2%. For `CCc1nonc1NC(=O)c1oc2cc(C)c(Cl)cc2c1C`, the “activity change, negative = inhibition” value is inactive: 5.63%.

For `N#C/C(=C/c1ccc(N2CCOCC2)o1)C(=O)N1CCOCC1`, the “activity change, negative = inhibition” value was inactive: 19.3%.

Turning to `Cc1ccc(NC(=O)CCc2c(C)nn(-c3ccc(N4CCOCC4)nn3)c2C)cc1F`, the “activity change, negative = inhibition” value is inactive: -4.18%.

Regarding `CCOC(=O)c1cccc(NC(=O)CCNS(=O)(=O)c2cccc3nonc23)c1`, the activity change, negative = inhibition was inactive: 2.07% [at 9.27 µM]. Regarding `O=C1OC[C@@H]2CCCN2C(=O)[C@H](CC(=O)N(CCO)Cc2ccccc2)C/C=C\CC[C@H]1Cc1ccc(F)cc1`, the “activity change, negative = inhibition” value was inactive: -12.5%. The same measure, in the same setting: the same measure for `C1CCC(C(CC2CCCCN2)C2CCCCC2)CC1` (stereo not drawn): inactive: 1.43%.
